Out of some 310,000 compounds screened, about 2,200 (0.71%) showed an effect of 50% or more. Effects have a minus sign here. Some of the results follow.

Sequence of human ether-à-go-go-related gene (hERG) potassium channel (Q12809 whole entry, looked up): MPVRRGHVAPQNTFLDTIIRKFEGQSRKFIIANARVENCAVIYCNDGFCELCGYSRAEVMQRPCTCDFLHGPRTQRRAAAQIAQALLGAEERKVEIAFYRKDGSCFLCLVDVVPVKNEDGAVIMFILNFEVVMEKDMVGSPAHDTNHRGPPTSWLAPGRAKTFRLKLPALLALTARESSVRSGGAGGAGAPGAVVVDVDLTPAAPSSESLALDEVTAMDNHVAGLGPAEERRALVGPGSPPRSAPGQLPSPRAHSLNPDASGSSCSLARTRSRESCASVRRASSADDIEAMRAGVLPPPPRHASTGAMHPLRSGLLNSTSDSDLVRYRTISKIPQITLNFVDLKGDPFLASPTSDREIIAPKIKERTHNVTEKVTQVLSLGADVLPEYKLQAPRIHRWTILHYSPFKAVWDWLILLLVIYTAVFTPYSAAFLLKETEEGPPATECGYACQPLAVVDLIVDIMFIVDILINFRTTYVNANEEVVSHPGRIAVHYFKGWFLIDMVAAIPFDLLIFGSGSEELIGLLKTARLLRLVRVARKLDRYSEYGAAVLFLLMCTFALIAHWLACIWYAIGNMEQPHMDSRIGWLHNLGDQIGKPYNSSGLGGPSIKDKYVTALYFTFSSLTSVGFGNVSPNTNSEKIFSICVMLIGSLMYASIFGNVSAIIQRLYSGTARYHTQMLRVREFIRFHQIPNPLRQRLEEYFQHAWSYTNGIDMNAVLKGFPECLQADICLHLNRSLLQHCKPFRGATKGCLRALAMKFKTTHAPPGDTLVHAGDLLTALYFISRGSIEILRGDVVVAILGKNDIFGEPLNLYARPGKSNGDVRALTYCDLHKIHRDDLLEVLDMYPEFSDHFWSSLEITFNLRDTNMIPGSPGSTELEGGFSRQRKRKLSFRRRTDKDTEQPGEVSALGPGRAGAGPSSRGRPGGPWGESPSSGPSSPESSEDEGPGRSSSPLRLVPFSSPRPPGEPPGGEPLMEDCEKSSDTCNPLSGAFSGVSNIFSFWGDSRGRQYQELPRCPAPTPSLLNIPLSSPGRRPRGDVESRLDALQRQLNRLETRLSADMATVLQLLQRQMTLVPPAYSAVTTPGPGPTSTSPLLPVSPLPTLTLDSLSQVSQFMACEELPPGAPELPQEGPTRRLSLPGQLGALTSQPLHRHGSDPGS

The test addresses human ether-à-go-go-related gene (hERG) potassium channel (human, UniProt Q12809). As to the kind of experiment: primary screen, population patch clamp on CHO cells stably expressing hERG.
For `C=C(C)CSc1nnc(-c2cccc(S(=O)(=O)N(C)C)c2)n1-c1cc(OC)ccc1OC`, the “hERG current change (%, negative = inhibition) at 1uM” value was 5.1%. Turning to `CCCn1c(SCC(=O)Nc2ccc(S(=O)(=O)N(C)C)cc2)n[nH]c1=O`, the “hERG current change (%, negative = inhibition) at 1uM” value is 7.4%.

Consider `Cc1cccc(C)c1OCC(=O)NC1CC1`, for which the “hERG current change (%, negative = inhibition) at 1uM” value is listed as 14%.

`CCOC(=O)c1ccc(OS(=O)(=O)c2ccccc2)c(OC)c1`: the “hERG current change (%, negative = inhibition) at 1uM” value was 11.4%. In the case of `COC(=O)Cc1ccc(NC(=S)N2CCCCC2C)cc1` (stereo not shown) it was 0.705%. In the case of `CC(C(=O)N1CCOCCOCCOCC1)N1C(=O)c2ccccc2C1=O` (stereo not shown) it was 10.9%. As to `CN(CC(=O)Nc1ccccc1C(F)(F)F)C(=O)C1CC1`, the “hERG current change (%, negative = inhibition) at 1uM” value was found to be 14.5%. For `O=C(COC(=O)/C=C/c1ccc(F)cc1)Nc1ccc(Cl)cn1`, the “hERG current change (%, negative = inhibition) at 1uM” value came out at 19.6%. Regarding `O=C(NC12CC3CC(CC(C3)C1)C2)c1ccc([N+](=O)[O-])cc1`, the “hERG current change (%, negative = inhibition) at 1uM” value amounted to 11.1%. With `COc1cc(C(C)=O)ccc1OC(=O)N(C)c1ccccc1`, the “hERG current change (%, negative = inhibition) at 1uM” value stood at 6.73%. Turning to `COCCCNC(=O)CCC(=O)Nc1ccc2nc(N3CCOCC3)cc(C)c2c1`, the “hERG current change (%, negative = inhibition) at 1uM” value is given as 7.15%.

Consider `CC(=O)Nc1ccc(NC(=O)COC(=O)CCc2nc3ccccc3s2)cc1`, for which the “hERG current change (%, negative = inhibition) at 1uM” value is recorded as 7.01%. The figure for `Cc1cc(C)c(S(=O)(=O)NCC2CCC(C(=O)N3CCC4(CC3)OCCO4)CC2)c(C)c1` (stereo not shown) is -8.34%.

As for `Nc1nc(CN2CCN(c3ccccc3)CC2)nc(Nc2ccc(Cl)cc2)n1`, the “hERG current change (%, negative = inhibition) at 1uM” value was -44.8%.

In the case of `Nc1cc(N)nc(SCC(=O)NC(=O)NC2CCCC2)n1`, the “hERG current change (%, negative = inhibition) at 1uM” value is 6.37%. The figure for `Cc1nnc(SCC(=O)N2CCc3ccccc32)n1-c1ccccc1` is 21%; for `O=S(=O)(NCC(c1cccnc1)N1CCN(c2ccc(F)cc2)CC1)c1cccs1` (stereo not shown) it is -22.3%; for `CC(C)(CNC(=O)c1cc(-c2ccc(Cl)s2)nc2ccccc12)N1CCOCC1` it is -11.6%.

On to `CCC(C)(C)NC(=O)C(c1ccccc1)N(C(=O)c1csnn1)C1CC1` (stereo not shown), for which the “hERG current change (%, negative = inhibition) at 1uM” value is recorded as 13.5%. As to `COCCNC(=S)N(CCc1c(C)[nH]c2ccc(Cl)cc12)Cc1cccnc1`, the “hERG current change (%, negative = inhibition) at 1uM” value is recorded as -3.35%.

In the case of `CCOc1ccc(CCNC(=O)CS(=O)(=O)Cc2nc(-c3ccc(OC)cc3)oc2C)cc1`, the “hERG current change (%, negative = inhibition) at 1uM” value was -0.117%. The figure for `CC(=O)Nc1ccc(S(=O)(=O)/N=C2\SCCN2S(=O)(=O)c2ccc(NC(C)=O)cc2)cc1` is 8.99%; for `COc1ccc(Nc2nnc(-c3ccccc3)c3ccccc23)cc1C(=O)N1CCCCC1` it is -14.8%. The figure for `Cc1ccc(/C=C/S(=O)(=O)NCc2ccc(F)cc2)cc1` is 16%. As to `COc1ccc(N2CCN(c3ncnc4c3cnn4-c3ccc(C)cc3C)CC2)cc1`, the “hERG current change (%, negative = inhibition) at 1uM” value turned out to be 13.6%.

Take `C[C@H](NC(=O)Cc1cccc2ccccc12)C(=O)N1CCCN(C)CC1`: the “hERG current change (%, negative = inhibition) at 1uM” value was 10%. The figure for `CCOC(=O)C1CCN(C(=O)C2CCN(c3ncnc4c3nc3n4CCCCC3)CC2)CC1` is 16%; for `COC(=O)c1ccc(COc2ccccc2/C=C(\C#N)C(=O)Nc2c(C)cccc2C)cc1` it is 10.3%; for `O=C1S/C(=C\c2cccs2)C(=O)N1c1ccc(O)cc1` it is 16.1%. For `CCOc1cc(C2C(C#N)=C(N)OC3CCCC(=O)C32)ccc1OCCN1CCOCC1` (stereo not shown), the “hERG current change (%, negative = inhibition) at 1uM” value is 8.53%.

For the molecule `CC(C)CNC(=S)Nc1ccccc1F`, the “hERG current change (%, negative = inhibition) at 1uM” value came to 11.4%. The figure for `O=C(Cn1c(CO)nc2ccccc21)Nc1ccccc1Cl` is 3.41%. In the case of `CC1CN(CCOc2ccccc2-c2ccccc2)CC(C)O1.O=C(O)C(=O)O` (stereo not shown) it was 6.68%; in that of `Cc1cnc(C(=O)N2CCCC(C(=O)c3cccc(OC(C)C)c3)C2)cn1` (stereo not shown), 3.22%; in that of `O=C(c1cccc2ccccc12)N1CCN(c2ccc([N+](=O)[O-])c(NCc3ccco3)c2)CC1`, 14.5%. `Cc1ccc(C(=O)Oc2cc(C)n(C)c(=O)c2)cc1`: the “hERG current change (%, negative = inhibition) at 1uM” value came to 5.86%. The figure for `O=C(COC(=O)c1c[nH]c2ccccc12)Nc1ccc(F)cc1` is -1.51%. For `CC1=CCC2C(=O)N(C(C)c3ccccc3)C(=O)C2C1` (stereo not shown), the “hERG current change (%, negative = inhibition) at 1uM” value came to 7.02%. The figure for `COc1ccc(C(=S)N2CCC(C(N)=O)CC2)cc1Br` is 13.2%; for `COC(=O)c1cc2oc(C)cc2n1CC(=O)N(C)c1ccccc1` it is 16.7%; for `O=C(Nc1nc(-c2cccc([N+](=O)[O-])c2)cs1)c1cccc([N+](=O)[O-])c1C(=O)O` it is 12.5%. In the case of `CN(C)S(=O)(=O)c1cccc(C(=O)Nc2cccnc2)c1` it was 4.03%; in that of `O=C(N=C1c2ccccc2CN1c1ccc(F)cc1)c1ccc(Cl)nc1`, 3.7%.

Source of the values: PMC4336329 (PLoS ONE, 2015).
